Measurements as given in PubChem BioAssay AID1345083 (National Center for Advancing Translational Sciences (NCATS), 2018).
About 6,200 (6.6%) of roughly 94,000 compounds were called active. Inconclusive results, whose numbers are uncertain, are shown with a selection of clear calls. Calls come from the whole dose curve; as a rule, active = well fitted inhibition curve with a large enough effect; inconclusive = small, poorly fitted or top-dose-only effect; inactive = flat fitted curve, though single readings scatter. Potencies beside an inconclusive call are fits to weak or partial responses and may not hold up.

assay: Cytotoxic Profiling in HEK 293 Cell Line of Diverse Libraries Using Quantitative High-Throughput Screening; details: HEK 293 viability, ATP luminescence (CellTiter-Glo), 48-72 h; activity change, negative = cytotoxicity: at 115 µM (top of the series) unless noted; series mostly up to 115 µM; note: nearly all actives have a fitted effect of over 60% in size
In short: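 Pintool-delivered compounds were incubated with HEK 293 cells (250 cells/well) at 37 degree Celsius for 48 or 72 hr. ATP-dependent luminescence (CellTiter-Glo) then reported remaining viable cells.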
% is set by controls: 0 for no effect and ±100 for the full control effect; potency is the fitted concentration of half-maximal effect; tags give direction and shape of the fitted curve.

Structure (SMILES)	Potency	activity change, negative = cytotoxicity	outcome
O=C1CC2(CCN(Cc3ccccc3)CC2)Oc2ccccc2N1c1ccccc1	inconclusive: 50.1 µM [inhibitor, partial curve, poor fit]		
COCCN1CCCCCC(O)c2cc(C(=O)N3CCN(c4ccccn4)CC3)ccc21 (stereo not given)	inconclusive: 50.1 µM [inhibitor, partial curve, poor fit]		
COCCNC(=O)CCCN1C(=O)COc2ccc(C(=O)COc3ccc(F)c(Cl)c3)cc21	inconclusive: 50.1 µM [inhibitor, partial curve, poor fit]		
COc1ccccc1CN1CCc2nc(C(=O)Nc3ccc(Cl)cc3)oc2CC1	active: 28.2 µM		
OCCc1ccc(Nc2cnc3ccc(-c4cccc(CO)c4)nn23)cc1	inconclusive: 89.1 µM [inhibitor, partial curve]		
COC(=O)[C@H](Cc1ccc(OC)cc1)NC(=O)[C@H]1CN(S(=O)(=O)c2ccccc2)CCN1S(=O)(=O)c1ccccc1		inactive: -17.3%	
O=C(Nc1ccccc1)[C@@H]1C[C@@H](c2cccc(C(F)(F)F)c2)N(CC2CCOCC2)C1	active: 56.2 µM		
CN1CCN(C(=O)C2CCCN(c3ccnc4ccnn34)C2)CC1 (stereo not given)		inactive: -5.37%	
Cc1cccc(N2CCN(C(=O)c3ccc4c(c3)N(C(=O)c3ccccc3)CC4)CC2)c1C	active: 28.2 µM		
O=C(NCc1ccc(Cl)cc1)c1ccc2ccnn2c1	inconclusive: 112 µM [inhibitor, partial curve, poor fit]		
CCOc1cc(=O)n2c(c1C(=O)Nc1cc(Cl)ccc1C)CCCC2	inconclusive: 35.5 µM [inhibitor, partial curve, poor fit]		
COc1cccc(C(=O)Nc2cc(-c3cccnc3)nn2-c2ccccc2)c1	inconclusive: 50.1 µM [inhibitor, partial curve, poor fit]		
Cc1cc(Cl)c2oc(C(=O)N(Cc3c(C)nn(C)c3C)C3CC3)c(C)c2c1	inconclusive: 11.2 µM [inhibitor, full curve, poor fit]		
CNC(=O)[C@@H]1C[C@@H](Nc2ncnc(Oc3cccnc3C)c2C)CN1C		inactive: 1.7%	
CCOC(=O)C1(Cc2ccccc2Cl)CCNCC1	inconclusive: 89.1 µM [inhibitor, single point]		
COc1ccccc1CNC1(Cc2cc(COc3ccccc3)on2)COC1	inconclusive: 112 µM [inhibitor, partial curve]		
CCOc1ccc(NC(=O)Nc2c(N3CCCCC3)c(-c3cccc(F)c3)nn2C)cc1	inconclusive: 89.1 µM [inhibitor, single point]		
Cc1cccc(CN2CCCN(S(=O)(=O)c3ccccc3)CCC(=O)NCC2)c1	inconclusive: 79.4 µM [inhibitor, single point]		
Cc1ccc(C(=O)N2CCC[C@H]2c2nc(-c3ccccc3Cl)no2)cc1C	inconclusive: 50.1 µM [inhibitor, single point]		
COc1ccc(C(=O)N2CCC(N3C(=O)c4c(c(C)nn4-c4ccccc4)C3C)CC2)cc1 (stereo not given)	inconclusive: 56.2 µM [inhibitor, partial curve, poor fit]		
COCC1CN(C(C)=O)CC12CCN(Cc1cc(Cl)ccc1F)CC2 (stereo not given)	inconclusive: 56.2 µM [inhibitor, partial curve, poor fit]		
C[C@@H]1C(=O)O[C@H]2[C@H]1CC[C@@]1(C)Cc3sc(NC(=O)CC(C)(C)C)nc3[C@@H](C)[C@H]21	active: 31.6 µM		

Structure (SMILES)	Potency	activity change, negative = cytotoxicity	outcome
NC(=O)c1cccc(NC(=O)c2cccc(CN3CCNC(=O)C3)c2)c1	inconclusive: 89.1 µM [inhibitor, single point]		
Cc1noc(C)c1Cc1ccc(C(=O)N2CCCCCCNC(=O)CC2)o1		inactive: 0.0526%	
Cc1nc(S(=O)(=O)N2CCC(Cc3noc(-c4ccccc4)n3)C2)cn1C (stereo not given)		inactive: -12.8%	
COCCOCC(=O)N1CCC2(CC1)CC(N(C1CC1)S(C)(=O)=O)CCO2 (stereo not given)		inactive: -1.44%	
Cc1ccc(C(=O)N2CCC(C(=O)N3CCC(N4Cc5ccccc5C4=O)CC3)CC2)cc1		inactive: -5.74%	
O=C(NCc1cccc(C(F)(F)F)c1)C1CCN(c2cnn(CC3CC3)c(=O)c2)C1 (stereo not given)	inconclusive: 56.2 µM [inhibitor, partial curve, poor fit]		
Cc1cnc(C2CCOCC2)n1C1CCN(C(=O)C(C)Oc2ccccc2)CC1 (stereo not given)		inactive: -17.8%	
Cc1ccc(C)c(NC(=O)Cn2ccn3nc(-c4ccccc4)c(CO)c3c2=O)c1	inconclusive: 44.7 µM [inhibitor, partial curve, poor fit]		
COc1cccc(CN2C[C@H]3[C@H](C2)[S+](=O)([O-])C(C)(C)C(=O)N3CCOc2ccccc2)c1	inconclusive: 89.1 µM [inhibitor, single point]		
COc1cccc(CN2CCC(c3nn(Cc4ccccc4)c(=O)[nH]3)CC2)c1		inactive: -15.5%	
CN1CCC(OC2CCN(C(=O)c3ccc(Br)cc3)CC2)CC1	inconclusive: 100 µM [inhibitor, single point]		
CC(C)NC(=O)[C@@H]1C[C@@H](NC(=O)c2ccon2)CN1Cc1cccnc1N	inconclusive: 89.1 µM [inhibitor, single point]		
O=C(Nc1ccc(Cl)cc1)NC1CCCN(c2nc3ncccc3o2)C1 (stereo not given)	inconclusive: 56.2 µM [inhibitor, partial curve, poor fit]		
CCc1ccc(C(=O)NC2CCN(c3cc(-c4ccccc4)[nH]n3)CC2)cc1	inconclusive: 70.8 µM [inhibitor, partial curve, poor fit]		
COCCN1CCNc2nc(CNCc3cccc(Cl)c3)n(Cc3ccccc3)c2C1=O	inconclusive: 89.1 µM [inhibitor, single point]		
C[C@H]1CCCN1C(=O)c1nnc(COc2ccc3cccnc3c2)n1-c1cccnc1		inactive: -16.2% [at 172 µM]	
O=C(NCCC1CCN(C(=O)Nc2cccc(F)c2)CC1)C1CCCC1	inconclusive: 50.1 µM [inhibitor, partial curve, poor fit]		
OC[C@@H]1O[C@H](CNCc2ccc(F)cc2)[C@H](N2CCOCC2)[C@@H]1O		inactive: -16.8% [at 172 µM]	
COc1ccc(F)cc1-c1ccc(CN2CCCCC2C(=O)NCCc2ccc(Cl)cc2)cc1 (stereo not given)	active: 31.6 µM		
COc1ccc(C(=O)N2C[C@@H]3C[C@H](C2)c2ccc(NC(=O)Nc4cccc(C#N)c4)c(=O)n2C3)cc1	inconclusive: 79.4 µM [inhibitor, partial curve, poor fit]		
O=C(c1ccccc1Cl)N1CCCC1C(=O)N1CCCC1c1nc2ccncc2[nH]1 (stereo not given)		inactive: -2.15%	
O=C(Cc1ccccc1)Nc1ccc([C@@H](O)[C@H]2COCC(=O)N2Cc2ccccc2F)cc1	inconclusive: 50.1 µM [inhibitor, partial curve, poor fit]		

Structure (SMILES)	Potency	activity change, negative = cytotoxicity	outcome
O=C(Nc1ccc2c(N3CCCC3)ncnc2c1)C1CCCO1 (stereo not given)	inconclusive: 89.1 µM [inhibitor, single point]		
COC1CCOC2(CCN(C(=O)c3ccccc3F)CC2)C1 (stereo not given)		inactive: 1.45%	
O=C(Nc1cccc(F)c1)N1CCC(OCCOc2cccnc2)CC1	inconclusive: 89.1 µM [inhibitor, single point]		
O=C(c1cc(=O)[nH]c2cc(F)ccc12)N1CCCC(CCc2ccc(F)cc2)C1 (stereo not given)	inconclusive: 50.1 µM [inhibitor, partial curve, poor fit]		
O=C(Cn1nc2c(cc1=O)CCCCC2)Nc1nc(-c2ccccn2)cs1	inconclusive: 70.8 µM [inhibitor, partial curve, poor fit]		
CCCc1noc(-c2cccn3c(CNC(=O)CCC4CCCC4)nnc23)n1			inactive
CC1=C[C@@H](CNC(=O)Nc2ccccc2)[C@H](C(C)C)C[C@H]1Cc1nnc(-c2ccncc2)o1	active: 22.4 µM		
COc1ccc(Nc2ccc3c(n2)CN(Cc2ccccc2)C(=O)CO3)cn1	active: 79.4 µM		
O=C(Nc1ccc2c(N3CCCC3)ncnc2c1)c1cc(F)ccc1Cl	inconclusive: 2.51 µM [inhibitor, partial curve, poor fit]		
COc1ccc(NC(=O)N2CCCC(Cc3noc(-c4ccncc4)n3)C2)cc1 (stereo not given)	inconclusive: 25.1 µM [inhibitor, full curve]		
C=CCN1C[C@H]2COc3cc(OC)ccc3[C@H]2N(C(=O)Cc2ccccc2)CCC1=O		inactive: -16.8%	
COc1ccc(-n2c(=O)c(C(=O)N3CCCC3)nc3cccnc32)cc1			inactive
Cc1ccc(CNC(=O)N2CCC3(CC2)CC(N(C2CC2)S(C)(=O)=O)CCO3)cc1 (stereo not given)		inactive: -16.5%	
CC(C)NC(=O)N1CC(Oc2cccc(-c3nc(-c4ccccc4)no3)c2)C1	inconclusive: 44.7 µM [inhibitor, partial curve, poor fit]		
COc1cccc(NC(=O)[C@@H]2C[C@@H](c3cccc(C(F)(F)F)c3)N(C)C2)c1	active: 100 µM		
Cc1cccc(-c2cccc(CN3CCC(NC(=O)N(C)C)CC3)c2)c1	inconclusive: 50.1 µM [inhibitor, partial curve, poor fit]		
c1cncc(CN2CCC[C@H]2c2nc(-c3ccnc(N4CCCC4)c3)no2)c1	inconclusive: 89.1 µM [inhibitor, partial curve, poor fit]		
O=C(CCc1nc(C2CCOC2)no1)NC1CCCCCCC1 (stereo not given)		inactive: 4.04%	
COCCN1CCC(N2CCN(S(=O)(=O)c3ccc(F)c(F)c3)CC2)C1=O (stereo not given)		inactive: -16.2%	
COc1cccc(C(=O)N2CCC(C(=O)N3CCCC(c4nc5ccncc5[nH]4)C3)CC2)c1 (stereo not given)		inactive: -10.8%	
CN1CCN(Cc2cn3c(=O)n(C)cc(-c4cccc(OC(F)(F)F)c4)c3n2)CC1	inconclusive: 112 µM [inhibitor, partial curve, poor fit]		
